Experimental data taken from PubChem BioAssay AID686978 (National Center for Advancing Translational Sciences (NCATS), 2013).
The campaign covered roughly 420,000 compounds. About 64,000 (15%) were called active. The inconclusive results got no clear call from the source; some entries with a clear call stand among them for comparison. Calls follow the shape of the dose curve; as a rule, active = well fitted inhibition curve with a large enough effect; inconclusive = small, poorly fitted or top-dose-only effect; inactive = flat fitted curve, though single readings scatter. No potency is given beside an inconclusive call; the fits are too rough.

Assay: qHTS for Inhibitors of human tyrosyl-DNA phosphodiesterase 1 (TDP1): qHTS in cells in absence of CPT; also: nearly all actives have a fitted effect of over 55% in size
Details: DT40 Tdp1-/- hTDP1 cells, no CPT, ATP luminescence, 48 h; activity change, negative = growth inhibition: at 46.2 µM (top of the series) unless noted
In short: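 Chicken DT40 Tdp1-/- cells stably complemented with human TDP1 were seeded at 400 cells/well with DMSO in place of 20 nM camptothecin. After compound pinning, cells grew at least 48 hr at 37 °C; viability read by CellTiter-Glo luminescence.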
% is scaled to controls: 0 for no effect and ±100 for the full control effect; potency is read from the fitted curve at half-maximal effect; tags tell the direction and shape of the fitted curve.

| Compound | activity change, negative = growth inhibition | Potency |
| --- | --- | --- |
| CC1c2ccsc2CCN1S(=O)(=O)c1cccs1 (centres undefined) | inactive: -21.4% |  |
| O=C(/C=C/c1ccc([N+](=O)[O-])s1)N1CCCC1 |  | active: 10.3 µM |
| CCOCCCNC(=O)c1ccc(CS(=O)(=O)Cc2ccc(C)cc2)o1 |  | inconclusive [inhibitor, partial curve, poor fit] |
| CCOC(=O)Cc1csc(-n2sc3ccccc3c2=O)n1 |  | active: 11.6 µM |
| C[C@@]12CCC[C@H](O1)[C@@H]([C@H](O)c1ccccc1)O2 | inactive: -2.83% |  |
| CCN1CCc2c(C#N)c(N3CCOCC3)nc(NCc3ccccc3)c2C1 |  | inconclusive [inhibitor, single point] |
| Cc1cc(C)c2nc(NC(=O)[C@@H](NC(=O)c3cccc(S(=O)(=O)N4CCOCC4)c3)C(C)C)sc2c1 |  | inconclusive [inhibitor, single point] |
| COc1ccc(C(=O)CCN(C)C)c2ccccc12 |  | active: 2.82 µM |
| CC(=O)Nc1ccc(NS(=O)(=O)c2ccc(C)cc2)cc1[N+](=O)[O-] | inactive: -5.35% |  |
| COc1cccc(N2CCN(Cc3nnc(-c4ccc5c(c4)OCO5)o3)CC2)c1 | inactive: -26.8% |  |
| CC(C)(C)C1CCc2c(sc(NC(=O)c3ccncc3)c2C(=O)Nc2ccccc2Cl)C1 (centres undefined) |  | inconclusive [inhibitor, single point] |
| COc1ccc(NS(=O)(=O)c2ccc(NS(=O)(=O)c3ccc4c(c3)OCCO4)cc2)cc1 |  | inconclusive [inhibitor, single point] |
| COc1ccc(NC(=O)N2CCN(c3cc(-c4noc(C)n4)ccc3C)CC2)c(OC)c1 |  | inconclusive [inhibitor, single point] |
| Cc1cc(C)cc(OCc2nnc(SCC(=O)OC(C)C)o2)c1 | inactive: -17.1% |  |
| CSc1nnc(C)c(=O)n1COC(=O)COc1ccccc1F |  | inconclusive [inhibitor, single point] |
| Cc1occc1-c1nnc(-c2cc([N+](=O)[O-])cc([N+](=O)[O-])c2)o1 |  | inconclusive [inhibitor, single point] |
| COc1ccc(-n2nnnc2/C=C/Nc2cc(C(F)(F)F)ccc2OC)cc1 |  | inconclusive [inhibitor, partial curve, poor fit] |
| COc1ccc(N2CCN(C(=O)CCn3cnc4onc(-c5ccc(F)cc5)c4c3=O)CC2)cc1 |  | inconclusive [inhibitor, single point] |
| Cc1ccc(S(=O)(=O)c2c(N)n(CCC(C)C)c3nc4ccccc4nc23)cc1 |  | inconclusive [inhibitor, single point] |
